According to PubChem BioAssay AID493208 (National Center for Advancing Translational Sciences (NCATS), 2011):
Out of some 44,000 compounds screened, about 340 (0.77%) were called active. Not shown: some 5% with an inconclusive outcome. Calls come from the whole dose curve; as a rule, active = well fitted inhibition curve with a large enough effect; inconclusive = small, poorly fitted or top-dose-only effect; inactive = flat fitted curve, though single readings scatter. This is one part of the list.

Assay: Acumen qHTS Assay for Inhibitors of the mTORC1 Signaling Pathway in MEF (Tsc2-/-, p53-/-) Cells: Sytravon; note: nearly all actives have a fitted effect of over 50% in size;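 for activity change, negative = inhibition: plate controls were DMSO for no effect and rapamycin for full effect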
Conditions: phospho-rpS6 immunofluorescence/PI, 24 h; series mostly up to 38.3 µM; activity change, negative = inhibition: at the top concentration
Method in brief: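 Cell-based qHTS: Tsc2-/- p53-/- MEF, 24 h cpd, 37 °C; fix/perm, anti-phospho-S6 Alexa-488 + PI; Acumen 488 nm scan; pS6/PI ratio, % positive cells; rapamycin 7.5 nM = inhibition ref; PI count = viability.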
Potency is the fitted concentration of half-maximal effect.

SMILES | activity change, negative = inhibition | Potency
Cc1ccccc1CN1CCc2nc(N3CCN(c4ncccn4)CC3)ncc2C1 | inactive: -1.33% | 
COc1ccc(CCCc2nnc(SCC(=O)Nc3cccc(C)c3)o2)cc1C | inactive: 3.37% | 
CCCCN(C)CCCNC(=O)Cn1ncc2c3ccccc3n(Cc3cccc(Cl)c3)c2c1=O | inactive: -5.12% | 
Cc1cccc(N2CCN(S(=O)(=O)c3cn(C)c(C)n3)CC2)c1C | inactive: -2.87% | 
CCOc1ccccc1C(=O)Oc1c(S(=O)(=O)c2ccc(C)cc2)c(C)nn1-c1ccccc1 | inactive: 1.59% | 
COc1cc(NC(=O)CSc2nc(-c3cccs3)cc(C(F)(F)F)n2)cc(OC)c1OC | inactive: -13% | 
COc1cccc(-n2c(SCC(=O)N3CCc4ccccc43)nc3c([nH]c4ccccc43)c2=O)c1 | inactive: 3% | 
O=C(Nc1ccc(F)cc1F)c1cccc2c1C(=O)N(C1CCCCC1)C2 | inactive: -6.37% | 
Cc1cccc(CSc2nc3c(c(=O)[nH]2)CCC3)c1 | inactive: -2.59% | 
CCc1ccc(C2CC(=O)c3c([nH]c(C(=O)OC4CCC(C)CC4)c3C)C2)cc1 (configuration not stated) | inactive: -3.17% | 
CNC(=O)c1ccc2nc(CCc3ccccc3)oc2c1 | inactive: -3.76% | 
COc1ccc(S(=O)(=O)NCc2cccn2Cc2cccc(C)c2)cc1Cl | inactive: 8.21% | 
COc1ccc(-c2cc(C(F)(F)F)nc(SCC(=O)N3CCCCC3)n2)cc1OC | inactive: -5.39% | 
CCc1cccc(C)c1NC(=O)C(CC)n1nc(C)c2c(C)n(-c3ccccc3)nc2c1=O (configuration not stated) | inactive: -8.77% | 
COc1ccc(-c2nc(SCC(=O)Nc3ccccc3)c(-c3ccc(F)cc3)[nH]2)cc1OC | inactive: 1.51% | 
CCS(=O)(=O)N1CCc2cc(C(=O)N3CCN(c4ccc(OC)cc4)CC3)ccc21 | inactive: 1.79% | 
COc1ccc(OC)c(S(=O)(=O)N2Cc3ccccc3CC2C(=O)Nc2ccc(C)cc2C)c1 (configuration not stated) | inactive: -12.8% | 
CCCCN(CC)CCCNC(=O)CN1C(=O)CSc2ccc(S(=O)(=O)N3CCOCC3)cc21 | inactive: 1.17% | 
CCOC(=O)c1cc(-c2ccc(OC)c(S(=O)(=O)NC3CCCCC3)c2)on1 | inactive: 3.71% | 
COc1ccc(CCNC(=O)CN2C(=O)COc3ccc(C)cc32)cc1OC | inactive: 1.93% | 
CCN(C(=O)Cn1nc(Cc2ccncc2)c2ccccc2c1=O)c1cccc(Cl)c1 | inactive: 3.3% | 
COc1ccccc1N(CC(=O)N1CCC(C)CC1)S(=O)(=O)c1ccc(C)cc1 | inactive: 1.9% | 
CCc1ccc(Cn2c(CNS(=O)(=O)c3ccc([N+](=O)[O-])cc3)nc3cccnc32)cc1 | inactive: 0.576% | 
COCCCNC(=O)c1c(-c2ccccc2)c(-c2ccccc2)nn(C)c1=O | inactive: -0.447% | 
O=C(Nc1ccc2nc3n(c(=O)c2c1)CCCCC3)C(=O)Nc1ccccc1F | inactive: -7.67% | 

SMILES | activity change, negative = inhibition | Potency
COc1cc(NC(=O)c2nn(C)c3c2CS(=O)(=O)c2ccccc2-3)cc(OC)c1 | inactive: -6.63% | 
Cc1cccc(Nc2nn3c(=O)c4cc5c(cc4nc3s2)OCO5)c1 | inactive: 5.17% | 
CCn1nc(C)c(CCN(C)C(=O)Nc2ccc(C)c(Cl)c2)c1C | inactive: 7.61% | 
Cc1ccc(C(=O)NCc2ccc3c(c2)CCN3C(=O)c2ccc(C)cc2)cc1 | inactive: 4.33% | 
COCCNC(=O)c1ccc(-n2c(-c3ccccc3)cc3c2CCC(C)C3)cc1 (configuration not stated) | inactive: 3.67% | 
Cc1cc(Nc2cccc(Cl)c2)nc2ccc(NC(=O)Cc3ccc(Cl)cc3)cc12 | inactive: -11.7% | 
COc1ccc(NC(=O)c2sc3nc4c(cc3c2N)CCCCCC4)c(OC)c1 | inactive: -12.8% | 
COc1cc(N2C(=O)CSC23C(=O)N(Cc2cccc(F)c2)c2ccccc23)cc(OC)c1OC (configuration not stated) | inactive: -11.3% | 
CCN(CC)CCNC(=O)CN1C(=O)COc2ccc(S(=O)(=O)N3CCOCC3)cc21 | inactive: -1.12% | 
CCOC(=O)Cn1c(=O)n(CC2CCCO2)c2nc(-c3ccc(OCC)cc3)nc(C(N)=O)c21 (configuration not stated) | inactive: -1.73% | 
COc1ccc(CCNC(=O)c2ccc3c(c2)CCN3S(=O)(=O)c2ccccc2)cc1OC | inactive: -4.36% | 
CCOc1ccccc1NC(=O)Cn1c(=O)n(Cc2ccccc2)c(=O)c2c1c1cc(C)ccc1n2C | inactive: 0.511% | 
Cc1ccc(-n2ncc(C(=O)NCc3ccccc3)c2C2CCN(C(=O)OC(C)(C)C)CC2)cc1 | inactive: 6.24% | 
Cc1cc(=O)n2c(C(=O)Nc3ccc(Br)cc3)c(C(=O)Nc3ccccc3)sc2n1 | inactive: 3.93% | 
COc1ccccc1OCc1nnc(-c2ccccc2)o1 | inactive: -4.15% | 
CCCCOC(=O)c1ccc(OC(=O)c2sc3ncn(Cc4ccccc4Cl)c(=O)c3c2C)cc1 | inactive: -3.95% | 
Cc1ccc(Cl)cc1Nc1sc(C(=O)c2ccc(F)cc2)c(N)c1S(C)(=O)=O | inactive: -0.98% | 
O=C(CSc1nc(=O)n(Cc2ccco2)c2c1CCC2)Nc1cccc(F)c1 | inactive: 0.941% | 
CCOc1ccc(CNCCCSc2nnnn2C)cc1OC | inactive: -0.618% | 
COc1cccc(CNC(=O)Cc2csc3nc(-c4ccccc4)cn23)c1 | inactive: -4.32% | 
CCOc1ccc(NC(=O)Cn2cc(C(=O)c3ccc(OC)cc3)c(=O)c3cc4c(cc32)OCO4)cc1 | inactive: 11% | 
COc1ccccc1N1CCN(C(c2ccc(Cl)cc2)c2nnc(-c3cccc(F)c3)o2)CC1 (configuration not stated) | inactive: -21.5% | 
O=C(Nc1ccc(Cl)c(-c2nc3ccccc3o2)c1)c1ccc(-c2cccc([N+](=O)[O-])c2)o1 | inactive: -1.59% | 
CCCSc1oc(-c2ccco2)nc1S(=O)(=O)c1ccc(Cl)cc1 | inactive: -4.71% | 
COc1ccccc1CNC(=O)c1cnc(N(C)C)nc1 | inactive: 0.298% | 

SMILES | activity change, negative = inhibition | Potency
COc1ccc(CC(=O)Nc2sc3c(c2C(=O)Nc2cccc(C)c2)CCCCC3)cc1 |  | active: 9.27 µM
COc1cccc(N2CCN(C(=O)c3cc4c(=O)n(Cc5cccnc5)ccc4nc3C)CC2)c1 | inactive: 3.01% | 
COc1ccc(NC(=O)Cn2c(SCc3ccc(F)cc3)nc3cccnc32)c(OC)c1 | inactive: -6.73% | 
CC1CCn2c(nc3cc(C(=O)NCCc4ccccc4)ccc32)C1 (configuration not stated) | inactive: 2.17% | 
CCOc1ccc(C(=O)Nc2nc(-c3ccc(Br)cc3)ns2)cc1 | inactive: -11.4% | 
COC(=O)c1ccccc1NC(=O)CCC(=O)N1CC(C)Sc2ccccc21 (configuration not stated) | inactive: -12.2% | 
Cc1ccc2c(=O)cc(C(=O)Nc3ccc(S(=O)(=O)N4CCCCC4)cc3)oc2c1 | inactive: -3.37% | 
COc1ccc(NC(=O)C2CCCN(c3cnccn3)C2)c(OC)c1 (configuration not stated) | inactive: -3.38% | 
CCC(Cc1ccccc1)NC(=O)CCS(=O)(=O)c1cc2c(cc1Cl)NC(=O)CO2 (configuration not stated) | inactive: 7.59% | 
CCOc1ccc(CNC(=O)Nc2ccc3c(c2)N(C)C(=O)c2ccccc2S3)cc1 | inactive: -27.8% | 
Cc1ccc(NC(=O)CSc2cn(CC(=O)N3CCOCC3)c3ccccc23)cc1Cl | inactive: -6% | 
CCC(C)n1c(=N)c(C(=O)NC2CCCC2)cc2c(=O)n3ccccc3nc21 (configuration not stated) | inactive: -2.02% | 
COc1ccc2sc(N(Cc3cccnc3)C(=O)c3cccs3)nc2c1 | inactive: -9.7% | 
Cn1c(=O)c2nc3ccc(NC(=O)C(F)(F)F)cc3nc2n(C)c1=O | inactive: -5.7% | 
Cc1ccc2c(c1)C(c1ccccc1)N(C(=O)c1ccc(S(=O)(=O)N3CCCC3)cc1)CC(=O)N2 (configuration not stated) | inactive: -0.308% | 
Cc1ccc(NC(=O)CN2C(=O)CSc3ccc(S(=O)(=O)N(C)C)cc32)c(C)c1 | inactive: 3.39% | 
O=S(=O)(c1ccccc1)c1nnn2c1nc(N1CCN(c3ccccc3)CC1)c1cc(Cl)ccc12 | inactive: 0.117% | 
COc1ccc2sc(N(Cc3cccnc3)C(=O)C3COc4ccccc4O3)nc2c1 (configuration not stated) | inactive: -6.44% | 
Cc1ccc(-n2ncc3c(NC4CCCC4)ncnc32)cc1 | inactive: 4.94% | 
CCOC(=O)/C(C#N)=C/c1ccc(-c2ccccc2)o1 | inactive: 2.08% | 
O=C(Cn1cc2c(n1)CCCC2)Nc1cc(C(F)(F)F)ccc1Cl | inactive: -12.5% | 
CCCn1cc(S(=O)(=O)c2ccccc2)c(=O)c2cc(F)c(N3CCCCCC3)cc21 | inactive: -19.8% | 
Cc1nc(SCc2ccccc2Cl)c(C#N)c(C)c1C | inactive: -19.6% | 
Cc1cc(C)cc(NC(=O)c2sc3nc4n(c(=O)c3c2C)N=C(c2ccc(F)cc2)CS4)c1 | inactive: 4.66% | 
O=C(Nc1ccc2nc(SCCOc3ccccc3Cl)sc2c1)c1ccco1 | inactive: -4.5% | 

SMILES | activity change, negative = inhibition | Potency
COc1cccc(-c2nn(C)c3sc(C(=O)NCCc4cccc(C)c4)cc23)c1 | inactive: -4.33% | 
COc1ccc(C)cc1NC(=O)c1c(C(=O)Nc2cccc(C)c2C)sc2nc(C)cc(=O)n12 | inactive: 3.79% | 
Cc1nnc(N2CCN(c3cccc(Cl)c3)CC2)c2c1nnn2Cc1ccc(F)cc1 | inactive: -0.589% | 
CCOC(=O)C1CCCN(C(=O)Cn2ncc3c(C)n(Cc4ccc(F)cc4)c(C)c3c2=O)C1 (configuration not stated) | inactive: -2.93% | 
CCOc1ccc(OCC)c(NC(=O)c2cnn(-c3ccc(F)cc3)c2C2CCN(C(=O)OC(C)(C)C)CC2)c1 | inactive: 0.318% | 
CCCNC(=O)Cn1ncc2c3ccccc3n(CCC)c2c1=O | inactive: -2.26% | 
CCOc1ccc(-n2c(C)nc3cc(C(=O)NCc4ccc(C)cc4)ccc32)cc1 | inactive: 7.05% | 
CCOc1ccc2c(c1)c(=O)c(C(=O)c1ccc3c(c1)OCO3)cn2Cc1cccc(F)c1 | inactive: -1.06% | 
COc1ccc(-n2ccnc(NCc3cccs3)c2=O)cc1 | inactive: -2.76% | 
COc1ccc(-c2ccc(-c3noc(-c4cc(OC)cc(OC)c4)n3)c(OC)n2)cc1 | inactive: -11.3% | 
CCn1c(=O)cc(SCC(=O)Nc2cc(Cl)ccc2OC)c2ccccc21 | inactive: -11.7% | 
CCOc1ccc(-c2nnc(SCC(=O)Oc3ccccc3)o2)cc1 | inactive: -2.18% | 
Cc1ccc(C(=O)Nc2nnc(S(=O)(=O)N(C)Cc3ccc(F)cc3)s2)cc1 | inactive: -5.29% | 
O=c1c2c3c(sc2nnn1Cc1ccc(F)cc1)CCCC3 | inactive: -0.763% | 
CC1CCCN(c2nc(-c3ccccc3O)nc3ccccc23)C1 (configuration not stated) | inactive: -5.62% | 
CCc1ccccc1NC(=O)Cn1nnc(C(=O)Nc2ccc(OC)c(OC)c2)c1N | inactive: -12.1% | 
Cc1cccc(NC(=O)c2oc3ccc(S(=O)(=O)N(C)C4CCCCC4)cc3c2C)c1C | inactive: -10.7% | 
CCOC(=O)c1ccccc1NC(=O)c1nn(-c2ccc(C)cc2)c(=O)n(C)c1=O | inactive: -3.84% | 
CCc1ccc(S(=O)(=O)N2CCN(c3ccc(Cl)c(Cl)c3)CC2)cc1 | inactive: 0.231% | 
COc1c(Cl)cc(Cl)cc1/C=C(\C#N)c1nc(-c2ccc(Cl)cc2)cs1 | inactive: -20.8% | 
CCOCCCNC(=O)Cn1cc2c(n1)-c1c(oc(C(=O)N3CCCC3)c1C)CC2 | inactive: 0.316% | 
CCc1ccccc1NC(=O)c1cnn(-c2ccc(F)cc2)c1C1CCNCC1 | inactive: -25.7% | 
